{"source": "patent US20200199647", "key": {"[1]": {"target": "R15A (human PPP1R15A amino acids 325-636, N-terminal MBP-tag, C-terminal His6-tag) (UniProt O75807)", "sequence (O75807 whole entry, looked up, stated change not applied, the tested form may be a part)": "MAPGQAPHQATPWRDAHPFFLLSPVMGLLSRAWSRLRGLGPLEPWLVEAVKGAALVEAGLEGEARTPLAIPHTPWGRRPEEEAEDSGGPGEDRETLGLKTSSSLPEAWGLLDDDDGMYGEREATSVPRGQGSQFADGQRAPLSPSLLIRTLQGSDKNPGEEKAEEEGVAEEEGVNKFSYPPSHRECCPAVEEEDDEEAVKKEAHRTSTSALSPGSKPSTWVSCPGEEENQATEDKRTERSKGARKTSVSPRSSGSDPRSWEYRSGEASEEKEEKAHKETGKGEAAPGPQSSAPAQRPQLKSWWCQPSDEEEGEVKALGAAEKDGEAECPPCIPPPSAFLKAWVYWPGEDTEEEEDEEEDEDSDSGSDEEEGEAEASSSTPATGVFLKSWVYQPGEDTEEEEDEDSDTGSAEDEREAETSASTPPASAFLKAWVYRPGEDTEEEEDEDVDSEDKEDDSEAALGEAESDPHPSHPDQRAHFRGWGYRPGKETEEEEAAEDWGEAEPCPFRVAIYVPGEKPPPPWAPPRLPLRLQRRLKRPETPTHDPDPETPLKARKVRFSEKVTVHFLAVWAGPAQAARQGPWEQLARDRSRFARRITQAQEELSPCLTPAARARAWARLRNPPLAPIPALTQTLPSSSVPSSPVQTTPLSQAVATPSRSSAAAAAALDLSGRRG"}, "[2]": {"target": "R15B (human PPP1R15B amino acids 340-698, N-terminal MBP-tag, C-terminal His6-tag) (UniProt Q5SWA1)", "sequence (Q5SWA1 other isoform, or with tags, fused parts or gaps)": "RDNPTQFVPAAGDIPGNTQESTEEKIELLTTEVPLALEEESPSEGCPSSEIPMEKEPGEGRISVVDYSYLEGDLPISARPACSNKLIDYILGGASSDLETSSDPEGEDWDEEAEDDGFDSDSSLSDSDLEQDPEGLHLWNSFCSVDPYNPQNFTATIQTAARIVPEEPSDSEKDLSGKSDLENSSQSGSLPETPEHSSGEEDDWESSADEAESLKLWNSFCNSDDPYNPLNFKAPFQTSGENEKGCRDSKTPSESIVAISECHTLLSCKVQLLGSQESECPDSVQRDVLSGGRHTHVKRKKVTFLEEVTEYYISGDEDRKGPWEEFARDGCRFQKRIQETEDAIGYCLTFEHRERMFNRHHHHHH"}, "[3]": {"target": "R3A (human PPP1R3A amino acids 1-240, N-terminal MBP-tag, C-terminal His6-tag) (UniProt Q16821)", "sequence (Q16821 whole entry, looked up, the tested form may be a part)": "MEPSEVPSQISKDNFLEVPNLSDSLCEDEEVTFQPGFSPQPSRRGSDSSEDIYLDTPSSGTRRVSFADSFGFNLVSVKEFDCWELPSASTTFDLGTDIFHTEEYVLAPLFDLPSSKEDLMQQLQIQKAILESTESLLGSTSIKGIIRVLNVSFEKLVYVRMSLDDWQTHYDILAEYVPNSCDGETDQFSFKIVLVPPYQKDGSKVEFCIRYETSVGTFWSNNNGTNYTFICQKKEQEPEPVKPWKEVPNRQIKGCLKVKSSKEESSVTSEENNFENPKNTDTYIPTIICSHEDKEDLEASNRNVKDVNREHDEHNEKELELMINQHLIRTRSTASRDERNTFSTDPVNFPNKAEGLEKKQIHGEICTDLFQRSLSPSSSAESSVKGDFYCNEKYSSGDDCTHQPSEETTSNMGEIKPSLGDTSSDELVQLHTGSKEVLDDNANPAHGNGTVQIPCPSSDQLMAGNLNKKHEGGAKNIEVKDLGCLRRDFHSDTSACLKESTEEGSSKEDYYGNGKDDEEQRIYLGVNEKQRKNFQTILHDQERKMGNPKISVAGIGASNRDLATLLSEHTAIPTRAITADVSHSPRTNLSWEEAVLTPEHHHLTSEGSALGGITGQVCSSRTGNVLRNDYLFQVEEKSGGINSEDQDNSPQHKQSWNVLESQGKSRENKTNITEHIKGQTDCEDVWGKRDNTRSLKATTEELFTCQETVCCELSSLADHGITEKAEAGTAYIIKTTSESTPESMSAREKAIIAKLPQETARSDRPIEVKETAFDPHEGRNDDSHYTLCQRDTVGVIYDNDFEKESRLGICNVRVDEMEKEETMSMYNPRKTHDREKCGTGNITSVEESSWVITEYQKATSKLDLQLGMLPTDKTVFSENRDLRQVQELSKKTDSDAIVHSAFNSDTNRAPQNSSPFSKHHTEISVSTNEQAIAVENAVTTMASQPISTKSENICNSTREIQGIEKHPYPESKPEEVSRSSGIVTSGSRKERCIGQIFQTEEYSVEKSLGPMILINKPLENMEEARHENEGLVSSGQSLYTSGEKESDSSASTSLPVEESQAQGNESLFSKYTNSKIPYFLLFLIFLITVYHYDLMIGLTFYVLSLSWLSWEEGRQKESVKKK"}}}
{"substance": "PP1c (human PP1cα […], N-terminal Thio6/His6 tag) (chain not printed)", "values": [{"measurement": "dephosphorylation of P-eIF2α (1 µM) by PP1c (10 nM), immunoblot / Phos-tag gel", "setting": "[1]", "value": "Addition of R15A to a sub-stoichiometric concentration (10 nM) of PP1c enabled the complete dephosphorylation of eIF2α while PP1c (10 nM) alone had no effect"}, {"measurement": "dephosphorylation of P-eIF2α (1 µM) by PP1c (10 nM), immunoblot / Phos-tag gel", "setting": "[2]", "value": "addition of R15B, also converted the inactive PP1c (10 nM) into a proficient eIF2α phosphatase"}, {"measurement": "dephosphorylation of P-eIF2α (1 µM) by PP1c (1 µM), immunoblot", "setting": "[3]", "value": "R3A (glycogen-targeting subunit of protein phosphatase 1 (GM)), inhibited the dephosphorylation of eIF2α by PP1c"}]}
